Experimental data: PubChem BioAssay AID1508623 (National Center for Advancing Translational Sciences (NCATS), 2021)
The whole screen tested about 48,000 compounds, of which about 450 (0.94%) were called active. About 19% were inconclusive and are not listed. Calls come from the whole dose curve; as a rule, active = well fitted inhibition curve with a large enough effect; inconclusive = small, poorly fitted or top-dose-only effect; inactive = no such curve, though single readings can be large or run the other way. Some of the results follow.

Test: Primary qHTS for Identification of Small Molecule Inhibitors of Huntingtin Promoter Activity; note: nearly all actives have a fitted effect of over 50% in size
Conditions: HEK293 HTT promoter firefly luciferase reporter (activity 0% = vehicle and -100% = no light), 24 h; series mostly up to 57.5 µM; activity change, negative = inhibition: at the top concentration
Method in brief: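 HEK293 cells carrying firefly luciferase reporters were seeded at 2,500 per well in Opti-MEM and cultured for 24 h. They were then treated with compounds at up to 57.5 uM final for 24 h at 37 degrees C before Dual-Glo luminescence readout.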

SMILES	activity change, negative = inhibition
Cn1c(=O)c2c(nc(SCC(=O)Nc3ccccc3F)n2Cc2ccc(Cl)cc2)n(C)c1=O	inactive: -2.92%
CCc1ccccc1NC(=O)CCNS(=O)(=O)c1ccc2c(c1)CCN2C(=O)C1CC1	inactive: 0.171%
CC1CCN(CCCC(=O)c2ccc(F)cc2)CC1	inactive: -3.71%
COc1ccccc1N1CCN(S(=O)(=O)c2c(C)sc3ncn(CC(=O)N(C)c4ccc(Cl)cc4)c(=O)c23)CC1	inactive: -22.3%
CCNC(=O)c1c(NC(=O)Cc2coc3cc(C)cc(C)c23)sc2c1CCCC2	inactive: 0.671%
Oc1c(C(c2ccccc2F)N2CCN(Cc3ccccc3)CC2)sc2nc(-c3ccco3)nn12 (configuration not stated)	inactive: -9.14%
Cc1c(C(=O)N2CCC(c3nc4ccccc4s3)CC2)oc2ccc(Cl)cc12	inactive: -17.6% [at 11.5 µM]
Cc1ccc2c(CC(=O)Nc3ccc(S(=O)(=O)N4CCCCC4)cc3)coc2c1	inactive: -27.9%
Cc1ccc(Cl)cc1NC(=O)Cn1c(=O)oc2cc(S(=O)(=O)N3CCCC3)ccc21	inactive: -50.9%
CCOc1ccccc1N(C)C(=O)C1CCCN(c2ncnc3c2nc2n3CCCCC2)C1 (configuration not stated)	inactive: -8.49%
Cc1cc(C)c2c(=O)nc(SCc3ccccc3C)n(C3CC3)c2n1	inactive: -3.06%
Nc1ccc(S(N)(=O)=O)cc1	inactive
Cc1ccc(NC(=O)c2cc(-c3ccc(Br)s3)nc3ccccc23)cc1F	inactive: 2.87%
COc1ccc(C(=O)OC2=C(C(=O)c3ccccc3)N(C)S(=O)(=O)c3ccccc32)cc1OC	inactive: -14.7% [at 11.5 µM]
CCN1CCC[C@H]1CNC(=O)c1cc(S(N)(=O)=O)ccc1OC	inactive: 14.6%
Cc1ccccc1CN1CCC(CNc2ncnc3onc(-c4ccc(F)cc4)c23)CC1	inactive: -0.0409%
CCOC(=O)c1c(C)c(-c2ccccc2)n(CC(=O)Nc2cc(C)ccc2OC)c1C	inactive: -6.63%
CCc1cccc(-n2nnc(-c3nsc(NC(=O)c4cccs4)n3)c2C)c1	inactive: 26.9%
CC(=O)Nc1ccc2nc(-c3cc(C)ccc3C)[nH]c2c1	inactive: 15.7%
CCCCN(CC)CCNC(=O)c1cn(C)c(=O)c2c1c1ccccc1n2C	inactive: -0.415%
COC(=O)c1ccccc1NC(=O)Cn1nnc2sc(-c3ccccc3)cc2c1=O	inactive: 6.5%
CCc1ccc(-c2nn(CC(=O)NC3CCCC3)c3c2cnc2ccc(F)cc23)cc1	inactive: 65.9%
CCOc1ccccc1NC(=O)NCCn1c(=O)oc2ccc(C)cc21	inactive: -10.3%
COc1ccc(-c2nc(-c3ccccc3)c(-c3ccc(O)cc3)[nH]2)cc1	inactive: -0.0768%
COc1ccccc1CNS(=O)(=O)c1cc2c3c(c1)CCN3C(=O)CC2	inactive: -31.9%

SMILES	activity change, negative = inhibition
COc1ccccc1C(=O)Nc1nc(-c2ccccc2)ns1	inactive: 61.2%
COc1ccc(Cn2c(C(=O)O)c(CNC3CCCCCC3)c3ccc(OC)cc32)cc1	inactive: -15.1%
O=C(/C=C/c1ccc(F)cc1)Nc1nc2n(n1)C(c1ccc(Cl)cc1)C=C(c1ccccc1)N2 (configuration not stated)	inactive: -28.4%
COc1ccc(OC)c(CNC(=O)CCn2c(=O)c3cccn3c3ccc(F)cc32)c1	inactive: -3.53%
COc1ccc(-n2ncc3c(NCCC4=CCCCC4)ncnc32)cc1	inactive: -6.68%
Cc1ccccc1-c1nc(CS(=O)(=O)CC(=O)NCc2cccc(Cl)c2)c(C)o1	inactive: -3.05%
Cc1ccc(N2CC(C(=O)Nc3ccc(Br)cc3)CC2=O)cc1 (configuration not stated)	inactive: -19.9%
C=Cc1ccc(CN2C(=O)N(c3cccc(Cl)c3)S(=O)(=O)c3ccccc32)cc1	inactive: -23.5%
Cc1ccc2c(=O)c(C(=O)c3cccc(Cl)c3)cn(CC(=O)NCc3ccc(F)cc3)c2n1	inactive: -14.5%
COc1ccc(C(=O)n2nc(-c3ccco3)nc2NCc2cccs2)cc1	inactive: 15.2%
O=C(NCc1cccc(Cl)c1)C(=O)Nc1ccc2nc3n(c(=O)c2c1)CCCCC3	inactive: 0.752%
CCCCN1CCCc2cc(CN(CCCN3CCOCC3)C(=O)Nc3ccc(OCC)cc3)ccc21	inactive: 5.81%
COc1ccc(C)cc1Nc1c2c(nc3nc(-c4cccs4)nn13)CCCC2	inactive: 0%
COc1cc(Nc2nc3ccccc3c3nnc(C)n23)cc(OC)c1	inactive: -14.8%
CCN(CC)S(=O)(=O)c1ccc2c(c1)N(CC(=O)N1CCN(c3ccccc3F)CC1)C(=O)CO2	inactive: -12.1%
Cc1ccc(NC(=O)N2CCc3cc(S(=O)(=O)N4CCC(C)CC4)ccc32)cc1C	inactive: -2.39%
CCOC(=O)c1ccc(Nc2ncnc3c2cnn3-c2cccc(Cl)c2)cc1	inactive: -1.29%
Cc1ccccc1NS(=O)(=O)c1nnc(NC(=O)c2ccccc2C)s1	inactive: -2.88%
CCOC(=O)c1ccc(NC(=O)c2ncn(-c3ccccc3)n2)cc1	inactive: 10.1%
COc1ccc(N2CCN(C(=O)CCn3c(=O)c4cccn4c4cccnc43)CC2)cc1	inactive: -10.4%
CCN(CC)c1ccc(C(=O)N2CCC(c3c[nH]c4ccccc34)(c3c[nH]c4ccccc34)CC2)cc1	inactive: -5.88%
O=C(NC1CCN(Cc2ccccc2)CC1)c1ccc(Cn2c(=O)c3ccccc3n(Cc3ccccc3)c2=O)cc1	inactive: -21.4%
Cc1ccc(-c2nc(-c3cc4cccc(OCc5cccc(C)c5)c4oc3=O)no2)cc1	inactive: -1.63%
Cc1ccc(CNC(=O)c2ccc(-n3cnc4cccnc43)cc2)cc1	inactive: -17.7%
Cc1ccc(NC(=O)/C(C#N)=C/c2cc(C)n(-c3ccc(F)cc3)c2C)cc1C	inactive: -8.92%

SMILES	activity change, negative = inhibition
CCc1ccc(NC(=O)Cn2c3ncccc3c(=O)n2-c2ccc(C)c(C)c2)cc1	inactive: -8.89%
Cc1cccc(NC(=O)CSc2nc3c([nH]c4ccccc43)c(=O)n2C)c1C	inactive: -7.24%
N#C/C(=C\c1ccc(Cl)cc1)c1nc2ccccc2[nH]1	inactive: 17.8%
Brc1ccccc1-c1ccccc1	inactive: 10.1% [at 116 µM]
CC(NC(=O)Nc1ccccc1C(F)(F)F)c1c(-n2cccc2)sc2c1CCCC2 (configuration not stated)	inactive: -29.3%
COc1ccccc1CNC(=O)Cn1ncc2c3ccccc3n(Cc3ccccc3C)c2c1=O	inactive: 6.19%
CCOC(=O)c1ccc(NS(=O)(=O)c2ccc(Br)s2)cc1	inactive: -14.6%
COc1ccccc1NC(=O)CSc1oc(-c2cccs2)nc1S(=O)(=O)c1ccc(Br)cc1	inactive: -32%
CN(C(=O)CSc1nc2c(c(=O)[nH]1)CCCC2)c1ccccc1	inactive: -13.5%
CCOc1ccccc1NC(=O)C1CCN(S(=O)(=O)c2ccccc2)CC1	inactive: -27.7%
CCOc1ccc(S(=O)(=O)N2CCN(c3c(C)cccc3C)CC2)c2ccccc12	inactive: -20.1%
Cc1cc(C)cc(OC(=O)c2snnc2C)c1	inactive: -21.9%
COc1cc(NC(=O)Cn2ncc3c([nH]c4ccc(C)cc43)c2=O)cc(OC)c1OC	inactive: -2.54%
COc1cc(Cl)c(C)cc1NC(=O)CSc1ncc(S(=O)(=O)c2ccc(C(C)(C)C)cc2)c(=O)[nH]1	inactive: -4.08%
COc1ccc(NC(=O)CSc2nnc(-c3cccs3)o2)cc1	inactive: 61.5%
CCOc1ccccc1Nc1cc(-c2ccccc2)nc(C)n1	inactive: -15.6%
CC(C)(Oc1ccc(C2CC2(Cl)Cl)cc1)C(=O)O (configuration not stated)	inactive
CC(C)CCN(Cc1ccco1)C(=O)c1cc2c(Cl)nc3ccccc3c2s1	inactive: 4.04%
Cc1ccc(S(=O)(=O)CC(=O)Nc2sc3c(c2C#N)CCCCC3)cc1	inactive: -13%
COc1ccc(-c2noc(CSCC(=O)Nc3cccc(C(F)(F)F)c3)n2)cc1OC	inactive: -13.1%
CCCOc1ccc(-c2nn(-c3ccccc3)cc2C2NC(=O)NC(C)=C2C(=O)OC)cc1C (configuration not stated)	inactive: -9.61%
CCOc1ccccc1NC(=O)Nc1nnc(N2CCCCCC2)s1	inactive: -8.92%
CCC(=O)N1CCc2cc(Br)cc(S(=O)(=O)CCC(=O)NCCc3ccc(Cl)cc3)c21	inactive: -14.3%
COc1ccccc1N1CCN(CC(O)COc2cc(C)cc(C)c2)CC1 (configuration not stated)	inactive: -26.5%
COc1cccc(CNC(=O)CCCN2C(=O)CSc3c2c(C)nn3-c2ccccc2)c1	inactive: -23.1%

SMILES	activity change, negative = inhibition
NC(=O)[C@@H](CCC(F)(F)F)N(Cc1ccc(-c2ncon2)cc1F)S(=O)(=O)c1ccc(Cl)cc1	inactive: -26.7%
O=c1c2ccccc2n(Cc2cccc(F)c2)c(=O)n1Cc1ccccc1Cl	inactive: -33.5%
COc1ccc(-c2ccc3c(N)c(C(=O)Nc4cc(F)ccc4C)sc3n2)cc1	inactive: -21.5%
Cc1cccc(Nc2c3c(nc4nncn24)CCC3)c1	inactive: -15.4%
CCn1cc(C(=O)N2CCN(c3cc(C)ccc3C)CC2)c(=O)c2cc(S(=O)(=O)N(C)C3CCCCC3)ccc21	inactive: -8.58%
Cc1ccc(-c2cc(C(=O)NCCc3ccccc3)c3c(-c4ccc(C)cc4)[nH]nc3n2)cc1	inactive: 67.4%
Cc1ccc(NC(=O)CSc2nc3c([nH]c4ccccc43)c(=O)n2-c2ccccc2)c(C)c1	inactive: -11.7%
CCCCN1CCc2nc(N3CCN(c4ncccn4)CC3)ncc2C1	inactive: -10.8%
CCN(c1ccccc1)S(=O)(=O)c1ccc(NC(=O)c2cc(=O)c3cc(C)c(C)cc3o2)cc1	inactive: -24.5%
Cc1cccc(NS(=O)(=O)c2ccc3c(c2)CCN3C(=O)CCC(=O)O)c1C	inactive: 5.72%
COc1cccc(-n2cc(C(=O)NCc3cccc(Cl)c3)c3ccccc3c2=O)c1	inactive: -22.7%
COc1ccc(S(=O)(=O)Nc2cc3c(cc2NCc2ccccc2)n(C)c(=O)n3C)cc1OC	inactive: 129%
COc1ccccc1N1CCN(C(=O)Cn2c(=O)nc(-c3ccccc3)c3cc(Cl)ccc32)CC1	inactive: 0.411%
CCOc1ccc(NC(=O)c2ccc(-c3ccccc3)s2)cc1	inactive: 0.0802%
Cc1ccc2c(=O)cc(CSc3nnc(-c4ccccc4)n3C)[nH]c2c1C	inactive: -2.15%
CC(C)c1ccc(S(=O)(=O)Nc2ccc3oc4c(c3c2)C(=O)CC(C)(C)C4)cc1	inactive: -17.3%
Cc1cc(C)c(NC(=O)c2cc3c(=O)n4ccccc4nc3n2C)c(C)c1	inactive: -17.3%
Cc1cc(-c2nc3ncccc3o2)ccc1NC(=O)c1ccc(Br)cc1	inactive: -9.22%
CCOC(=O)Cn1c(=O)n(C2CCCCC2)c2nc(-c3ccc(Cl)cc3)nc(C(N)=O)c21	inactive: 6.51%
Cc1c(Cl)cccc1NC(=O)c1ccc(C(=O)Nc2cccc(Cl)c2C)cc1	inactive: 2.37%
CC1CCN(C(=O)c2cnn(-c3cccc(Cl)c3)c2C2CCN(C(=O)OC(C)(C)C)CC2)CC1	inactive: 0.708%
COc1cc(OC)cc(-n2nnc(-c3nc(-c4ccccc4Cl)no3)c2N)c1	inactive: -4.57%
